Positions count from the first letter of the chain named. Some of the results follow.

This note sets out measurements from paper PMC9911399, “Two distinct binding modes provide the RNA-binding protein RbFox with extraordinary sequence specificity”.

First the molecules themselves.
T1: RBFOX1 RRM RbFoxmut (Fox-RRM*) (Homo sapiens, UniProt Q9NWB1 109-208, R118D;E147R;N151S;E152T)
T1 sequence: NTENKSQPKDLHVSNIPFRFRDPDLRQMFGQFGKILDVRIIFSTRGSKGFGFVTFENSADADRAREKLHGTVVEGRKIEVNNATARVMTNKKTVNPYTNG

B1: CGAAAAA (DNA:RNA)
RNA: GGGAGACCGGAAUUCAGAUUGUCCCGAAAAAUUAAAUCCCGUCGUAGCCACCA
DNA 1: CAATCTGAATTCCGGTCTCCC
DNA 2: TGGTGGCTACGACGGGATT
B2: UGGGAUG (DNA:RNA)
RNA: B1 RNA with C25U, A27G, A28G, A30U, A31G
DNA 1: CAATCTGAATTCCGGTCTCCC
DNA 2: TGGTGGCTACGACGGGATT
B3: AAACUAA (DNA:RNA)
RNA: B1 RNA with C25A, G26A, A28C, A29U
DNA 1: CAATCTGAATTCCGGTCTCCC
DNA 2: TGGTGGCTACGACGGGATT
B4: UUUGUCA (DNA:RNA)
RNA: B1 RNA with C25U, G26U, A27U, A28G, A29U, A30C
DNA 1: CAATCTGAATTCCGGTCTCCC
DNA 2: TGGTGGCTACGACGGGATT
B5: UCUCCCU (DNA:RNA)
RNA: GGGAGACCGGAAUUCAGAUUGUCCUCUCCCUUUAAAUCCCGUCGUAGCCACCA
DNA 1: CAATCTGAATTCCGGTCTCCC
DNA 2: TGGTGGCTACGACGGGATT
B6: GAAGCCA (DNA:RNA)
RNA: B1 RNA with C25G, G26A, A28G, A29C, A30C
DNA 1: CAATCTGAATTCCGGTCTCCC
DNA 2: TGGTGGCTACGACGGGATT
B7: ACUACGU (DNA:RNA)
RNA: B5 RNA with U25A, C28A, C30G
DNA 1: CAATCTGAATTCCGGTCTCCC
DNA 2: TGGTGGCTACGACGGGATT
B8: GCACGCG (DNA:RNA)
RNA: B5 RNA with U25G, U27A, C29G, U31G
DNA 1: CAATCTGAATTCCGGTCTCCC
DNA 2: TGGTGGCTACGACGGGATT
B9: GUCCUAC (DNA:RNA)
RNA: B1 RNA with C25G, G26U, A27C, A28C, A29U, A31C
DNA 1: CAATCTGAATTCCGGTCTCCC
DNA 2: TGGTGGCTACGACGGGATT
B10: ACCUAGA (DNA:RNA)
RNA: B1 RNA with C25A, G26C, A27C, A28U, A30G
DNA 1: CAATCTGAATTCCGGTCTCCC
DNA 2: TGGTGGCTACGACGGGATT
B11: CUCAACC (DNA:RNA)
RNA: B1 RNA with G26U, A27C, A30C, A31C
DNA 1: CAATCTGAATTCCGGTCTCCC
DNA 2: TGGTGGCTACGACGGGATT
B12: CCGGCCU (DNA:RNA)
RNA: B5 RNA with U25C, U27G, C28G
DNA 1: CAATCTGAATTCCGGTCTCCC
DNA 2: TGGTGGCTACGACGGGATT
B13: CUGCCAC (DNA:RNA)
RNA: B1 RNA with G26U, A27G, A28C, A29C, A31C
DNA 1: CAATCTGAATTCCGGTCTCCC
DNA 2: TGGTGGCTACGACGGGATT
B14: GUAGGUU (DNA:RNA)
RNA: B1 RNA with C25G, G26U, A28G, A29G, A30U, A31U
DNA 1: CAATCTGAATTCCGGTCTCCC
DNA 2: TGGTGGCTACGACGGGATT
B15: CGGGCCC (DNA:RNA)
RNA: B1 RNA with A27G, A28G, A29C, A30C, A31C
DNA 1: CAATCTGAATTCCGGTCTCCC
DNA 2: TGGTGGCTACGACGGGATT
B16: UACGGUU (DNA:RNA)
RNA: B5 RNA with C26A, U27C, C28G, C29G, C30U
DNA 1: CAATCTGAATTCCGGTCTCCC
DNA 2: TGGTGGCTACGACGGGATT
B17: CGCAUGG (DNA:RNA)
RNA: B1 RNA with A27C, A29U, A30G, A31G
DNA 1: CAATCTGAATTCCGGTCTCCC
DNA 2: TGGTGGCTACGACGGGATT
B18: UCUCGUA (DNA:RNA)
RNA: B5 RNA with C29G, C30U, U31A
DNA 1: CAATCTGAATTCCGGTCTCCC
DNA 2: TGGTGGCTACGACGGGATT
B19: UCUCAAG (DNA:RNA)
RNA: B5 RNA with C29A, C30A, U31G
DNA 1: CAATCTGAATTCCGGTCTCCC
DNA 2: TGGTGGCTACGACGGGATT
B20: UCGAGGU (DNA:RNA)
RNA: B5 RNA with U27G, C28A, C29G, C30G
DNA 1: CAATCTGAATTCCGGTCTCCC
DNA 2: TGGTGGCTACGACGGGATT
B21: GCAAACA (DNA:RNA)
RNA: B1 RNA with C25G, G26C, A30C
DNA 1: CAATCTGAATTCCGGTCTCCC
DNA 2: TGGTGGCTACGACGGGATT
B22: UGUUGGC (DNA:RNA)
RNA: B5 RNA with C26G, C28U, C29G, C30G, U31C
DNA 1: CAATCTGAATTCCGGTCTCCC
DNA 2: TGGTGGCTACGACGGGATT
B23: UCCGCGG (DNA:RNA)
RNA: B5 RNA with U27C, C28G, C30G, U31G
DNA 1: CAATCTGAATTCCGGTCTCCC
DNA 2: TGGTGGCTACGACGGGATT
B24: AGGCGUC (DNA:RNA)
RNA: B1 RNA with C25A, A27G, A28C, A29G, A30U, A31C
DNA 1: CAATCTGAATTCCGGTCTCCC
DNA 2: TGGTGGCTACGACGGGATT
B25: AAACCGU (DNA:RNA)
RNA: B5 RNA with U25A, C26A, U27A, C30G
DNA 1: CAATCTGAATTCCGGTCTCCC
DNA 2: TGGTGGCTACGACGGGATT
B26: AGUGCGA (DNA:RNA)
RNA: B1 RNA with C25A, A27U, A28G, A29C, A30G
DNA 1: CAATCTGAATTCCGGTCTCCC
DNA 2: TGGTGGCTACGACGGGATT
B27: AUUGAGC (DNA:RNA)
RNA: B1 RNA with C25A, G26U, A27U, A28G, A30G, A31C
DNA 1: CAATCTGAATTCCGGTCTCCC
DNA 2: TGGTGGCTACGACGGGATT
B28: ACAAAAG (DNA:RNA)
RNA: B1 RNA with C25A, G26C, A31G
DNA 1: CAATCTGAATTCCGGTCTCCC
DNA 2: TGGTGGCTACGACGGGATT
B29: CAUGACA (DNA:RNA)
RNA: B1 RNA with G26A, A27U, A28G, A30C
DNA 1: CAATCTGAATTCCGGTCTCCC
DNA 2: TGGTGGCTACGACGGGATT
B30: AAGCGGA (DNA:RNA)
RNA: B1 RNA with C25A, G26A, A27G, A28C, A29G, A30G
DNA 1: CAATCTGAATTCCGGTCTCCC
DNA 2: TGGTGGCTACGACGGGATT
B31: UUCACGG (DNA:RNA)
RNA: B5 RNA with C26U, U27C, C28A, C30G, U31G
DNA 1: CAATCTGAATTCCGGTCTCCC
DNA 2: TGGTGGCTACGACGGGATT

The test addresses T1, RBFOX1 RRM RbFoxmut (Fox-RRM*). The test can be described thus: EMSA; HiTS-Eq, 1 nM pool, 10 min; buffer printed only for the single-RNA assays: 10 mM Tris pH 7.5, 150 mM NaCl, 3.4 mM EDTA, 0.001% NP-40, 30 C. To be noted: tags: His6 N-terminal (pET28a); label: 5' 32P. Put shortly: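 Purified RbFox RRM, wild type or mutant, was incubated for 10 min in 50 µL with 1 nM of a 5′-radiolabelled RNA pool carrying 7 randomized nucleotides, whose flanks were annealed to DNA oligonucleotides, over a series of increasing protein concentrations. Unbound RNA was resolved on 8% native PAGE, cut out, reverse-transcribed, barcoded by PCR and sequenced on an Illumina HiSeq 2500. Relative association constants were derived from changes in read counts for each RNA species versus the control reaction and normalised to the cognate motif.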
Consider B1, for which the binding signal was 0.0624 KA relative to UGCAUGU.

Regarding B2, the binding signal is 0.691 KA relative to UGCAUGU. Consider B3, for which the binding signal was 0.0668 KA relative to UGCAUGU. In the case of B4, the binding signal is 0.13 KA relative to UGCAUGU. On to B5, for which the binding signal is 0.0345 KA relative to UGCAUGU. Turning to B6, the binding signal was 0.0844 KA relative to UGCAUGU. To B7 belongs 0.122 KA relative to UGCAUGU; to B8, 0.184 KA relative to UGCAUGU; to B9, 0.0713 KA relative to UGCAUGU.

In the case of B10, the binding signal was 0.109 KA relative to UGCAUGU. With B11, the binding signal was 0.0528 KA relative to UGCAUGU. With B12, the binding signal is 0.0519 KA relative to UGCAUGU. As for B13, the binding signal was 0.07 KA relative to UGCAUGU. Under B14 stands 0.12 KA relative to UGCAUGU. As for B15, the binding signal is 0.081 KA relative to UGCAUGU. With B16, the binding signal is 0.0904 KA relative to UGCAUGU. On to B17, for which the binding signal is 0.804 KA relative to UGCAUGU.

As to B18, the binding signal is 0.117 KA relative to UGCAUGU. Under B19 stands 0.124 KA relative to UGCAUGU; under B20, 0.117 KA relative to UGCAUGU; under B21, 0.0705 KA relative to UGCAUGU. Under B22 stands 0.0854 KA relative to UGCAUGU; under B23, 0.0935 KA relative to UGCAUGU; under B24, 0.105 KA relative to UGCAUGU. Turning to B25, the binding signal is 0.0861 KA relative to UGCAUGU. B26: the binding signal was 0.0666 KA relative to UGCAUGU. To B27 belongs 0.159 KA relative to UGCAUGU; to B28, 0.116 KA relative to UGCAUGU; to B29, 0.0647 KA relative to UGCAUGU. Consider B30, for which the binding signal is 0.0694 KA relative to UGCAUGU. Under B31 stands 0.0691 KA relative to UGCAUGU.
